# Assay results reported in paper PMC6193622.
# Chains of the proteins cited; added tags and fusions are not shown.
# UniProt Q9BXW9: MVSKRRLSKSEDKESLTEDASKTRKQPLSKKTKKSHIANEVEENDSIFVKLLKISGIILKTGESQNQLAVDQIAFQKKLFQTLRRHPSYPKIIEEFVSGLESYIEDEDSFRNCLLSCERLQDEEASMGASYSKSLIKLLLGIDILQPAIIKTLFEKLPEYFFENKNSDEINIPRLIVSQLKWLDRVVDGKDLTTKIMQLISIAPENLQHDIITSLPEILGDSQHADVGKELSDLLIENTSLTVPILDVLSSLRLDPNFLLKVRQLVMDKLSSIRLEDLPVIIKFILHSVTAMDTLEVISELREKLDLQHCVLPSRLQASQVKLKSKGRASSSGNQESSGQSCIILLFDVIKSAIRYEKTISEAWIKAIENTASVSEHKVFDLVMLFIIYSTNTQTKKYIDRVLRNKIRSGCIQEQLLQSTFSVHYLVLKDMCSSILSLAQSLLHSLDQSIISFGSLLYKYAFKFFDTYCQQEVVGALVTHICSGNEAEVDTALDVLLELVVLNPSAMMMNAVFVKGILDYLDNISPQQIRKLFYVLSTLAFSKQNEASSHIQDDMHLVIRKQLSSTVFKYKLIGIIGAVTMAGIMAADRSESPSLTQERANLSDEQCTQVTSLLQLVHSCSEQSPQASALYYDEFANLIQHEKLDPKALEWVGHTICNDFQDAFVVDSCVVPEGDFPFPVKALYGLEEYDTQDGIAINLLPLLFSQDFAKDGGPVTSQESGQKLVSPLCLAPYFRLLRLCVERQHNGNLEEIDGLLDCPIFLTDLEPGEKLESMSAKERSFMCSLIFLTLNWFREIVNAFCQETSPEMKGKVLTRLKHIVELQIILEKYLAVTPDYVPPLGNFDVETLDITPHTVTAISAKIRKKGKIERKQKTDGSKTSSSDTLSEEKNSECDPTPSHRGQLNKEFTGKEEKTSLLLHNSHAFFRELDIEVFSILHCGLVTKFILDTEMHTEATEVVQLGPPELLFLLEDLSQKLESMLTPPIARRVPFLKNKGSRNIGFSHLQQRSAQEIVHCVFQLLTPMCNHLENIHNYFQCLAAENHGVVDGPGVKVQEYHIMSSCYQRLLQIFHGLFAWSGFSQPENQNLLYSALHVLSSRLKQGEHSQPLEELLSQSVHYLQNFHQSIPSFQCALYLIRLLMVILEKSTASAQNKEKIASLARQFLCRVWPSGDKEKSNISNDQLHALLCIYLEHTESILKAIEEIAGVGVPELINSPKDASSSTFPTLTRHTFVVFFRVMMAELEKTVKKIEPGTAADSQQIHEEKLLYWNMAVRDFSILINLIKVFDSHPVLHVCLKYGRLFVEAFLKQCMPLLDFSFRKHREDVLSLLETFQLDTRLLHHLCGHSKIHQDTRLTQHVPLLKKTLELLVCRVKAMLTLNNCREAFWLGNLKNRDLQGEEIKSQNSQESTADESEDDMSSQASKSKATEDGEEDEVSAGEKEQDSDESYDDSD
# These are yes or no findings as the source states them, for the method shown. For some of these results: Binding seen in cells or lysates may run through a third protein. Some results given as binding are weak or reduced against the parent protein; the word gives no strength. For some of these results: Sequences can lack the tags named with a protein.
# T1: Flag-HA-UHRF1 expressed in HeLa cells (human) (UniProt Q96T88)
# T1 sequence: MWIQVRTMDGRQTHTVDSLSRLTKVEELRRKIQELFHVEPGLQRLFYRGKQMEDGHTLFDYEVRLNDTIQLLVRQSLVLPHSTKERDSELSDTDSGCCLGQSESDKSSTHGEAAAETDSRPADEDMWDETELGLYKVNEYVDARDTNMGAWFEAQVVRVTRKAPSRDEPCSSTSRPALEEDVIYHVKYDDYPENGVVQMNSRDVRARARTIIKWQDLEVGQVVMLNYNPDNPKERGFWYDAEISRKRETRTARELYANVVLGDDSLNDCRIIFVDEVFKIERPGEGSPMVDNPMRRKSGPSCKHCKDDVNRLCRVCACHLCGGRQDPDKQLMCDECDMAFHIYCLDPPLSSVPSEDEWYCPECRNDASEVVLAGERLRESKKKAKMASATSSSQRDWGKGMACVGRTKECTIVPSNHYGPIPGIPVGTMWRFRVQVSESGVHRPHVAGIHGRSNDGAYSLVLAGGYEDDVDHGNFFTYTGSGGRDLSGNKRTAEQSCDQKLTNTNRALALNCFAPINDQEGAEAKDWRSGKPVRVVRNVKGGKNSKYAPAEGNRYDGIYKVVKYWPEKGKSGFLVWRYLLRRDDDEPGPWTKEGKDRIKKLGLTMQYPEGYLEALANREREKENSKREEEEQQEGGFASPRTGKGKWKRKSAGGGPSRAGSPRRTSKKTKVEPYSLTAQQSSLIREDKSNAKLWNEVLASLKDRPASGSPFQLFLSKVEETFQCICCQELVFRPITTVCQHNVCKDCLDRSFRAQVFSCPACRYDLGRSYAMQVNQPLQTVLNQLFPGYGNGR
# T2: Flag-HA-UHRF2 expressed in HeLa cells (human) (UniProt Q96PU4)
# T2 sequence: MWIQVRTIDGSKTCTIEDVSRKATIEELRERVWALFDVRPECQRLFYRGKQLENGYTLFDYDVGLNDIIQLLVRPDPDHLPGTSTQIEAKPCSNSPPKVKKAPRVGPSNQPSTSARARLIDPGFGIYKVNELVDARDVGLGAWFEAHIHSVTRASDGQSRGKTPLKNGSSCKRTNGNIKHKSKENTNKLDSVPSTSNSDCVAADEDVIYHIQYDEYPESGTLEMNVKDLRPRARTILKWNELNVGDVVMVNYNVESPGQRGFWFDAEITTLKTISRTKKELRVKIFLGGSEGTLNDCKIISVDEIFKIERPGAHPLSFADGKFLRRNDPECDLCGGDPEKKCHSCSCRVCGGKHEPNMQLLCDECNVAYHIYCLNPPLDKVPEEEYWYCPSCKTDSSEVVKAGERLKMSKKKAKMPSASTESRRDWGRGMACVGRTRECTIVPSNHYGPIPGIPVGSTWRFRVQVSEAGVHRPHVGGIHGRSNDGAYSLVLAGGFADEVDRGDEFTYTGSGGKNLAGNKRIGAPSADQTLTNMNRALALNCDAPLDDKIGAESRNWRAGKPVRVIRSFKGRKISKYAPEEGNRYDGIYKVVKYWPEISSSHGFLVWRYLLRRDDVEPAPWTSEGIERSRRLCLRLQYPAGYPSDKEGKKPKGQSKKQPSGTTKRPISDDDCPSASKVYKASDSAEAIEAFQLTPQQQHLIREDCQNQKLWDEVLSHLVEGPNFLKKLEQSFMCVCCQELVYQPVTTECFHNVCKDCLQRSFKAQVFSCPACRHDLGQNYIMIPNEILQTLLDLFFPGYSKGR
# B1: endogenous UHRF2 (HeLa) (protein, UniProt Q96PU4 1-802)
# chain: T2 sequence
# B2: 6xHis-UHRF1 purified from Sf9 cells (protein, UniProt Q96T88 1-793)
# chain: T1 sequence
# B3: endogenous UHRF1 (HeLa) (protein, UniProt Q96T88 1-793)
# chain: T1 sequence
# B4: Strep-6xHis-Tev-UHRF1 purified from Sf9 cells (protein, UniProt Q96T88 1-793)
# chain: T1 sequence
# B5: recombinant UHRF1 purified from Sf9 cells (gel filtration, tag not stated) (protein, UniProt Q96T88 1-793)
# chain: T1 sequence
# B6: Flag-UHRF1 with the SRA domain deleted (protein, UniProt Q96T88-2)
# chain: MGVFAVPPLSSDTMWIQVRTMDGRQTHTVDSLSRLTKVEELRRKIQELFHVEPGLQRLFYRGKQMEDGHTLFDYEVRLNDTIQLLVRQSLVLPHSTKERDSELSDTDSGCCLGQSESDKSSTHGEAAAETDSRPADEDMWDETELGLYKVNEYVDARDTNMGAWFEAQVVRVTRKAPSRDEPCSSTSRPALEEDVIYHVKYDDYPENGVVQMNSRDVRARARTIIKWQDLEVGQVVMLNYNPDNPKERGFWYDAEISRKRETRTARELYANVVLGDDSLNDCRIIFVDEVFKIERPGEGSPMVDNPMRRKSGPSCKHCKDDVNRLCRVCACHLCGGRQDPDKQLMCDECDMAFHIYCLDPPLSSVPSEDEWYCPECRNDASEVVLAGERLRESKKKAKMASATSSSQRDWGKGMACVGRTKECTIVREREKENSKREEEEQQEGGFASPRTGKGKWKRKSAGGGPSRAGSPRRTSKKTKVEPYSLTAQQSSLIREDKSNAKLWNEVLASLKDRPASGSPFQLFLSKVEETFQCICCQELVFRPITTVCQHNVCKDCLDRSFRAQVFSCPACRYDLGRSYAMQVNQPLQTVLNQLFPGYGNGR
# Assays:
# [1] = target: T1, Flag-HA-UHRF1 expressed in HeLa cells (human); assay: co-IP; Flag-HA-UHRF1 or Flag-HA-UHRF2 expressed in HeLa cells, immunoprecipitated from nuclear extracts with anti-Flag antibodies after TMP/UVA treatment; blots with anti-UHRF2 and anti-UHRF1
# [2] = target: HA-FANCD2 (unmodified) purified from HeLa cells (human) (UniProt Q9BXW9); assay: co-IP; in vitro binding assay: 1μg of each protein with 10μg BSA in 20mM Tris-HCl pH 8.0, 150mM KCl, 10% glycerol, 2mM β-ME, 10μl, 37°C 1h; HA-FANCD2 immunoprecipitated on protein A sepharose with anti-HA IgG at 4°C, washed with 0.1% Tween-20, eluted with HA peptide; immunoblotting; both purified
# [3] = target: Flag-FANCD2 expressed in HeLaS3 cells depleted of endogenous FANCD2 (human) (UniProt Q9BXW9); assay: co-IP; cells treated with TMP/UVA, 1 hour recovery; lysis with Benzonase and the cross-linker DSP (quenched with Tris), extraction in 300mM KCl; M2 anti-Flag agarose, elution with Flag peptide; immunoblotting
# [4] = target: T2, Flag-HA-UHRF2 expressed in HeLa cells (human); assay: co-IP; Flag-HA-UHRF1 or Flag-HA-UHRF2 expressed in HeLa cells, immunoprecipitated from nuclear extracts with anti-Flag antibodies after TMP/UVA treatment; blots with anti-UHRF2 and anti-UHRF1
# [5] = target: Flag-HA-FANCD2 purified from Sf9 cells (human) (UniProt Q9BXW9); assay: co-IP; in vitro binding assay: 1μg of each protein with 10μg BSA in 20mM Tris-HCl pH 8.0, 150mM KCl, 10% glycerol, 2mM β-ME, 10μl, 37°C 1h; HA-FANCD2 immunoprecipitated on protein A sepharose with anti-HA IgG at 4°C, washed with 0.1% Tween-20, eluted with HA peptide; immunoblotting; both purified
# [6] = target: Flag-HA-FANCD2 purified from Sf9 cells (human) (UniProt Q9BXW9); assay: SEC; FANCD2 alone, UHRF1 alone, or the two incubated together in vitro; Superdex 200 5/150 GL column; both purified
binder,measurement,setting,value
B1,binding,[1],binds
B2,binding,[2],binds
B3,binding,[3],binds
same,binding,[4],binds
B4,binding,[5],binds
B5,binding,[6],binds
B6,binding,[5],no binding (tested: 1μg of each protein in 10μl)
